Assay results reported in PubChem BioAssay AID1345082 (National Center for Advancing Translational Sciences (NCATS), 2018).
Several values for one entry are separate records, joined by “and”; a condition that tells them apart may be missing. Equal entries are not always repeated. About 4,000 (4.3%) of roughly 94,000 compounds were called active. Inconclusive results, whose numbers are uncertain, are shown with a selection of clear calls. Calls follow the shape of the dose curve; as a rule, active = well fitted inhibition curve with a large enough effect; inconclusive = small, poorly fitted or top-dose-only effect; inactive = no such curve, though single readings can be large or run the other way. A potency beside an inconclusive call is a rough fit, not a confirmed value.

test: Cytotoxic Profiling in NIH 3T3 Cell Line of Diverse Libraries Using Quantitative High-Throughput Screening; conditions: NIH 3T3 viability, CellTiter-Glo ATP luminescence, 48-72 h; activity change, negative = cytotoxicity: at 96.7 µM (top of the series) unless noted; series mostly up to 96.7 µM; also: nearly all actives have a fitted effect of over 55% in size
In short: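 NIH 3T3 cells at 400 cells/well received 23 nL of compound by pintool and were incubated 48 or 72 h at 37 °C. Viability was read as ATP-coupled CellTiter-Glo luminescence.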
% is scaled to controls: 0 for no effect and ±100 for the full control effect; potency is read from the fitted curve at half-maximal effect; tags tell the direction and shape of the fitted curve.

Q: With `COc1ccc(-c2nnc3n2CCN(C(=O)Cc2ccccn2)C3)cc1` as the compound, how does the “activity change, negative = cytotoxicity” value read?
A: The value was inactive: -17.2%.

Q: Which “outcome” value does the source give for `CC(C)(C)CC(=O)N1CCC(N2C(=O)C3(CCCCC3)C2c2ccncc2)CC1` (stereo not given) here?
A: The value was “inactive”.

Q: Which Potency does the source give for `O=C1CCCN1CCCN1C(=O)[C@H]2CN(Cc3ccc(Br)cc3)C[C@H]2C1=O` here?
A: Its Potency is inconclusive: 50.1 µM [inhibitor, partial curve, poor fit].

Q: Which Potency does the source give for `CCC(C)NC(=O)Cn1c(C)ccc(NC(=O)Nc2ccc(C)cc2)c1=O` (stereo not given) here?
A: Its Potency is inconclusive: 44.7 µM [inhibitor, partial curve, poor fit].

Q: Which Potency does the source give for `COc1ccc(CCC2CCCN(S(=O)(=O)N(C)C)C2)cc1` (stereo not given) here?
A: The Potency was inconclusive: 25.1 µM [inhibitor, partial curve, poor fit].

Q: For `COCCCn1c(C)cc(C(=O)NCCc2noc(-c3ccccc3)n2)c1C`, which Potency is on record?
A: Its Potency is inconclusive: 70.8 µM [inhibitor, partial curve, poor fit].

Q: Which “activity change, negative = cytotoxicity” value does the source give for `COCCn1ncc(N2CCC(C(=O)NCC3CCN(Cc4cccc(OC)c4)CC3)C2)cc1=O` (stereo not given) here?
A: The value was inactive: -22.2%.

Q: Which Potency does the source give for `CC(=O)Nc1ccc(C(=O)N2CCC3(CC2)CN(C(=O)NC(C)C)Cc2ccccc2O3)cc1` here?
A: Its Potency is inconclusive: 79.4 µM [inhibitor, single point].

Q: For `Cc1cc(C)cc(N2CCN(Cc3cn(-c4ccccc4)nn3)CC2=O)c1`, which “activity change, negative = cytotoxicity” value is on record?
A: The value was inactive: -3.05%.

Q: With `CC(C)CNC(=O)c1ccc2c(c1)NC(C)(CNc1ccccc1)CO2` (stereo not given) as the compound, how does the Potency read?
A: The Potency was inconclusive: 89.1 µM [inhibitor, partial curve, poor fit].

Q: With `COCC(=O)NC1CCN(C(=O)c2ccc(-c3ccccc3OC)cc2)CC1` as the compound, how does the Potency read?
A: The Potency was inconclusive: 50.1 µM [inhibitor, partial curve, poor fit] and inconclusive: 44.7 µM [inhibitor, partial curve, poor fit].

Q: For `COc1ccc(-c2cc(C[C@H]3CNCC[C@H]3CC(=O)N3CCC(Cc4ccccc4)CC3)no2)cc1`, which Potency is on record?
A: Its Potency is inconclusive: 22.4 µM [inhibitor, full curve, poor fit].

Q: Which Potency does the source give for `COCCN1CCCC[C@]2(C[C@H](CO)[C@H](c3ccccc3)N2C(=O)OCC(C)C)C1=O` here?
A: Its Potency is inconclusive: 50.1 µM [inhibitor, partial curve, poor fit].

Q: Which Potency does the source give for `CCCCNC(=O)c1cc2n(n1)CC(c1ccc(Cl)cc1)OC2` (stereo not given) here?
A: The Potency was inconclusive: 50.1 µM [inhibitor, partial curve, poor fit].

Q: With `COc1ccc(-c2noc([C@@H]3C[C@H](NS(=O)(=O)c4cccs4)CN3C)n2)cc1` as the compound, how does the Potency read?
A: The Potency was inconclusive: 8.91 µM [inhibitor, full curve, poor fit].

Q: With `CC(C)(C)C(=O)N[C@H]1C[C@@H](Cc2cc(-c3ccccc3)on2)C1(C)C` as the compound, how does the Potency read?
A: The Potency was inconclusive: 89.1 µM [inhibitor, partial curve, poor fit].

Q: Which Potency does the source give for `COc1cccc(-c2ccc3onc(C)c3n2)c1` here?
A: Its Potency is inconclusive: 100 µM [inhibitor, partial curve].

Q: For `CC1(C(=O)NCCN2CCOCC2)CCCc2cnc(NCc3ccccc3)nc21` (stereo not given), which Potency is on record?
A: The Potency was inconclusive: 56.2 µM [inhibitor, partial curve, poor fit].

Q: With `Cn1cccc1CN1CCC2(C1)C(=NC1CCCCC1)NC(=O)N2c1cc(F)cc(F)c1` (stereo not given) as the compound, how does the “activity change, negative = cytotoxicity” value read?
A: The value was inactive: -15.9%.

Q: For `COc1ccc(/C=C/c2ccc3c(c2)C(=O)N2CC[C@H](NC(=O)CCC(=O)O)[C@H]2C(=O)N3)cc1`, which “activity change, negative = cytotoxicity” value is on record?
A: Its value is inactive: -3.16%.

Q: With `Cc1cc(C)c2c(CC(=O)N[C@@H]3CCOC[C@H]3Oc3ccccn3)coc2c1` as the compound, how does the Potency read?
A: Its Potency is inconclusive: 79.4 µM [inhibitor, single point].

Q: With `O=C(Nc1cccc(F)c1)[C@@H]1C[C@@H](c2ccc(F)cc2)N([S+](=O)([O-])c2ccccc2)C1` as the compound, how does the Potency read?
A: The Potency was inconclusive: 28.2 µM [inhibitor, full curve, poor fit].

Q: For `CCc1ccc(CNC(=O)c2ccc3c(c2)N(C)C2CCCCN2C3=O)cc1` (stereo not given), which Potency is on record?
A: Its Potency is inconclusive: 56.2 µM [inhibitor, partial curve, poor fit].

Q: With `Cc1ccc(NC(=O)c2cc3c(N(C)Cc4ccccc4)nc(C)cn3n2)c(F)c1` as the compound, how does the “activity change, negative = cytotoxicity” value read?
A: The value was inactive: -25%.

Q: For `CCn1cc(-c2ccncc2)cc1C(=O)NCc1ccc(SC)cc1`, which Potency is on record?
A: The Potency was inconclusive: 70.8 µM [inhibitor, partial curve, poor fit].

Q: With `CC1=C[C@@H](CO)[C@H](C(C)C)C[C@H]1CC(=O)NCc1cc(F)cc(F)c1` as the compound, how does the Potency read?
A: Its Potency is inconclusive: 100 µM [inhibitor, single point].

Q: With `FC(F)(F)c1ccc(O[C@H]2COCCN(c3nc4ccccc4o3)C2)nc1` as the compound, how does the Potency read?
A: The Potency was inconclusive: 100 µM [inhibitor, single point].

Q: Which Potency does the source give for `Cc1ccccc1N(C)C1CN(Cc2cccs2)C1` here?
A: The Potency was inconclusive: 79.4 µM [inhibitor, partial curve].

Q: Which Potency does the source give for `COc1ccc(Cl)cc1C(=O)N1CCC2(CC1)NC(=O)N(c1ccccc1)N2` here?
A: The Potency was inconclusive: 35.5 µM [inhibitor, partial curve, poor fit].

Q: Which “outcome” value does the source give for `Cc1cccc(NC(=O)Cn2nc3n(c2=O)CCCC3)c1C` here?
A: The value was “inactive”.

Q: With `COc1ccccc1-c1ccc(CN2CCC(NC(=O)c3ccccc3Cl)C2)cc1` (stereo not given) as the compound, how does the Potency read?
A: Its Potency is inconclusive: 50.1 µM [inhibitor, partial curve, poor fit].

Q: Which “activity change, negative = cytotoxicity” value does the source give for `CC1(C(=O)NC2CCOCC2)CCCc2cnc(NCc3ccccc3)nc21` (stereo not given) here?
A: The value was inactive: -23.2% [at 138 µM].

Q: For `O=S(=O)(c1ccc(C(F)(F)F)cc1)N1CCC(C2CCNC2)CC1` (stereo not given), which Potency is on record?
A: Its Potency is inconclusive: 44.7 µM [inhibitor, partial curve, poor fit].

Q: For `O=C(NCc1ccc(F)cc1)N1CCCC(Cc2noc(-c3ccncc3)n2)C1` (stereo not given), which Potency is on record?
A: The Potency was inconclusive: 50.1 µM [inhibitor, partial curve, poor fit].

Q: With `O=C1CCN(Cc2ccncc2)CCCC(C(=O)NCCCN2CCCc3ccccc32)CCN1` (stereo not given) as the compound, how does the Potency read?
A: The Potency was inconclusive: 44.7 µM [inhibitor, partial curve, poor fit].

Q: For `COCCn1nc2n(c1=O)CCN(C(=O)c1cc(F)ccc1F)CC2`, which “activity change, negative = cytotoxicity” value is on record?
A: Its value is inactive: 1.28%.

Q: Which “activity change, negative = cytotoxicity” value does the source give for `O=C(c1ccc(F)cc1)N1CCCC(C(=O)N2CCC(c3nc4ncccc4[nH]3)CC2)C1` (stereo not given) here?
A: Its value is inactive: -12.7%.

Q: With `CC(C(=O)NCc1ccccc1)N1C(=O)COc2ccc(C(=O)COc3ccc(F)cc3)cc21` (stereo not given) as the compound, how does the “activity change, negative = cytotoxicity” value read?
A: The value was inactive: -29%.

Q: With `Cc1ccc(OCC(=O)N2CCC(c3noc(-c4cnccn4)n3)C2)cc1` (stereo not given) as the compound, how does the “activity change, negative = cytotoxicity” value read?
A: Its value is inactive: -19.7%.

Q: With `CC(C)NC(=O)c1cn2cc(-c3ccc(F)cc3)sc2n1` as the compound, how does the Potency read?
A: Its Potency is inconclusive: 89.1 µM [inhibitor, partial curve, poor fit].

Q: Which “activity change, negative = cytotoxicity” value does the source give for `CC1CCCCC1Nc1ncnc2c1CN(C1CCCNCC1)C(=O)CN2C` (stereo not given) here?
A: Its value is inactive: 4.52%.

Q: With `O=S(=O)(Cc1ccccc1F)N1CCC(Cc2nc(-c3ccncc3)n[nH]2)C1` (stereo not given) as the compound, how does the Potency read?
A: Its Potency is inconclusive: 15.8 µM [inhibitor, full curve].

Q: Which Potency does the source give for `O=C1NC2(CCN(S(=O)(=O)c3ccccc3)CC2)Oc2ccccc21` here?
A: Its Potency is inconclusive: 39.8 µM [inhibitor, partial curve, poor fit].

Q: Which Potency does the source give for `COc1ccc(-c2nc(C)nc3c2CN(C(=O)c2ccccc2C)CC3)cc1` here?
A: The Potency was inconclusive: 70.8 µM [inhibitor, single point].

Q: For `CN(Cc1cnc2ccccc2c1)C(=O)c1ccc(CCC(C)(C)O)cc1`, which Potency is on record?
A: The Potency was inconclusive: 3.98 µM [inhibitor, full curve, poor fit].

Q: With `COc1ccc(C(=O)N2CCC3(CC2)NC(=O)N(Cc2ccc(F)cc2)C3=O)cc1OC` as the compound, how does the Potency read?
A: The Potency was inconclusive: 70.8 µM [inhibitor, single point].

Q: With `COc1ccccc1CC(=O)N1CCCc2ncc(C(=O)NCCOc3ccccc3)cc21` as the compound, how does the “activity change, negative = cytotoxicity” value read?
A: Its value is inactive: -23%.

Q: With `COc1ccc2[nH]cc(CCNC(=O)CCC3CCN(C(=O)c4ccc(C)cc4)CC3)c2c1` as the compound, how does the Potency read?
A: Its Potency is inconclusive: 44.7 µM [inhibitor, partial curve, poor fit].

Q: With `Cc1noc2c(-c3cccnc3NCCCn3ccnc3)cc(-c3ccccc3)nc12` as the compound, how does the Potency read?
A: Its Potency is inconclusive: 56.2 µM [inhibitor, partial curve, poor fit].

Q: Which Potency does the source give for `COc1ccc(C(=O)N2CCCCCC2c2nnc(-c3ccccc3)o2)cn1` (stereo not given) here?
A: The Potency was inconclusive: 56.2 µM [inhibitor, partial curve, poor fit].

Q: For `CC(=O)NC1(C)CCCN(Cc2cccc(-c3cccc(F)c3)c2)C1` (stereo not given), which Potency is on record?
A: The Potency was inconclusive: 112 µM [inhibitor, partial curve, poor fit].

Q: With `COc1ccc(C(=O)NCCn2ccn3nc(-c4ccc(C)cc4C)cc3c2=O)c(C)c1` as the compound, how does the Potency read?
A: Its Potency is inconclusive: 20 µM [inhibitor, full curve, poor fit].

Q: With `COc1ccc(CCC(=O)N2CCC3(CC2)NCCc2c3[nH]c3ccc(OC)cc23)cc1` as the compound, how does the Potency read?
A: Its Potency is inconclusive: 44.7 µM [inhibitor, partial curve, poor fit].

Q: With `Cc1ccc(C(=O)N2CCCCCCNC(=O)CC2c2ccccc2)s1` (stereo not given) as the compound, how does the Potency read?
A: The Potency was inconclusive: 31.6 µM [inhibitor, partial curve].

Q: For `CN(C(=O)c1ccccc1F)C1CCCc2ccccc21` (stereo not given), which Potency is on record?
A: The Potency was inconclusive: 89.1 µM [inhibitor, partial curve].

Q: Which Potency does the source give for `C=CCNC(=O)[C@@H]1Cc2cn(CC3CC3)c3cccc(c23)[C@H](CC(C)C)N1` here?
A: The Potency was inconclusive: 50.1 µM [inhibitor, full curve, poor fit].

Q: For `CC(=O)N1Cc2ccccc2CC2(CCCCN2CC2CCCC2)C1` (stereo not given), which Potency is on record?
A: Its Potency is inconclusive: 89.1 µM [inhibitor, single point].

Q: Which Potency does the source give for `O=C(c1ccccc1Cl)N1CCCC(c2nn(-c3cccc(Cl)c3)c(=O)[nH]2)C1` (stereo not given) here?
A: The Potency was active: 35.5 µM.

Q: Which Potency does the source give for `Cc1ccc(C)c(CNC(=O)C2(c3ccc(NS(C)(=O)=O)cc3)CCCCC2)c1` here?
A: The Potency was inconclusive: 50.1 µM [inhibitor, partial curve, poor fit].

Q: With `O=C1c2c(nc(CNCc3cccc(F)c3)n2Cc2ccccc2)NCCN1Cc1cccc(Cl)c1` as the compound, how does the Potency read?
A: Its Potency is inconclusive: 50.1 µM [inhibitor, partial curve, poor fit].
